{
  "source": "PubChem BioAssay AID504884",
  "about": "(Broad Institute, 2011)",
  "note": "The whole screen tested about 360,000 compounds, of which about 230 (0.064%) were called active. Inconclusive means that the source gave no clear call. Such entries were picked first, then a sample of the others. No stated cut-off is given here; in the data, active means activity above about 50% (passing the limit was not always enough); inconclusive means no clear call, values can overlap the other calls.",
  "data": [
    {"system": "DNA topoisomerase I (Yersinia pestis CO92)", "assay": "Yersinia pestis topoisomerase I inhibitors, primary screen, biochemical, cleavage product accumulation, plate reader, single point (AID 504884)", "conditions": "Y. pestis Topo-I cleavage product accumulation, at 10 µM, hits give high values", "values": [
      {"molecule": "CCC(/C=C1\\Sc2ccc(OC)cc2N1CCO)=C\\c1sc2ccc(OC)cc2[n+]1CCO", "activity": "inconclusive: 62.8%"},
      {"molecule": "Cc1ccc(C(=O)Sc2cccccc2=O)cc1", "activity": "inactive: 4.76%"},
      {"molecule": "CCCn1c(N2CCC(Cc3ccccc3)CC2)nc2c1c(=O)[nH]c(=O)n2C", "activity": "active: 51.6%"},
      {"molecule": "CCN(CC)c1ncnc2scc(C3COc4ccccc4O3)c12", "note": "(stereo not drawn)", "activity": "active: 53%"},
      {"molecule": "COc1ccc(-n2c(-c3ccc(F)cc3)cnc2SCC(=O)NCc2ccco2)cc1", "activity": "active: 51%"},
      {"molecule": "CCOC(=O)N1CCN(c2cc(NCCC(=O)O)c3c4c(onc24)-c2ccccc2C3=O)CC1", "activity": "inconclusive: 57.1%"},
      {"molecule": "COC(=O)c1c(NC(=O)CC2SC(N)=NC2=O)sc2c1CCC(C(C)(C)C)C2", "note": "(stereo not drawn)", "activity": "inconclusive: 51.7%"},
      {"molecule": "Cc1ccc(/C=C/C(=O)N2CCC(Cc3ccccc3)CC2)cc1", "activity": "active: 50.9%"},
      {"molecule": "CCOc1ccccc1CNC(c1ccccc1)c1ccccc1", "activity": "active: 52.4%"},
      {"molecule": "CSc1nc(Cl)c(Cc2ccc(OC(C)C)cc2)c(N(C)C)n1", "activity": "inconclusive: 50.2%"},
      {"molecule": "CCOC(=O)C1CCN(c2ccc([N+](=O)[O-])c(C(C)=O)c2)CC1", "activity": "inconclusive: 90.3%"},
      {"molecule": "CC(C)(C)c1ccc(C2=CC(c3ccccc3)n3ncnc3N2)cc1", "note": "(stereo not drawn)", "activity": "inconclusive: 52%"},
      {"molecule": "CCOC(=O)c1ccc(S(=O)(=O)N2CCN(C(C)=O)CC2)cc1", "activity": "inconclusive: 115%"},
      {"molecule": "C/C=C/Cn1c(SCc2ccc(Cl)cc2)nc2c1c(=O)[nH]c(=O)n2C", "activity": "inconclusive: 50%"},
      {"molecule": "CCCCCCCCN1[C@@H](CC(C)=O)c2cc(C(F)(F)F)ccc2S1(=O)=O", "activity": "active: 66.3%"},
      {"molecule": "Cc1cccc(NC(=O)NCc2ccc3[nH]c(C)cc3c2)c1", "activity": "inactive: -11.1%"},
      {"molecule": "COc1ccc(NC(=O)CCSc2ccc3ccccc3n2)cc1", "activity": "inactive: 11.7%"},
      {"molecule": "Clc1ccc(CSC(Cn2ccnc2)c2ccc(Cl)cc2Cl)cc1", "note": "(stereo not drawn)", "activity": "active: 57.3%"},
      {"molecule": "C#CCOCCOCCOCCNc1nc(N2CCN(C(=O)CCCCCCCCCCNC(=O)Cn3cc(C[C@@H](C)O)nn3)CC2)nc(N2CCN(C(=O)CCCCCCCCCCNC(=O)Cn3cc(C[C@@H](C)O)nn3)CC2)n1", "activity": "inconclusive: 58.3%"},
      {"molecule": "Cc1nc(N)sc1C(=O)N/N=C/c1ccccc1[N+](=O)[O-]", "activity": "inconclusive: 73%"},
      {"molecule": "CC(C)CN(C(=O)c1cccc(S(=O)(=O)N2CCN(Cc3ccccc3)CC2)c1)C1CCS(=O)(=O)C1", "note": "(stereo not drawn)", "activity": "inactive: 34.1%"},
      {"molecule": "Cc1ccc(C)c(OCCC(=O)OCC(=O)N2CCN(c3ccccc3)CC2)c1", "activity": "inconclusive: 55.6%"},
      {"molecule": "COC1=C(Nc2ccc(OC)cc2)C(=O)c2ccccc2C1=O", "activity": "inactive: -0.558%"},
      {"molecule": "CC(C)CC1NC(=O)c2cc3ccccc3cc2-n2c1nc1cc(Cl)ccc1c2=O", "note": "(stereo not drawn)", "activity": "active: 53.6%"},
      {"molecule": "C=CCn1c(=O)c2c(nc3n2CCN3c2cccc(Cl)c2C)n(C)c1=O", "activity": "inactive: 6.91%"},
      {"molecule": "O=C(COc1ccc(Br)cc1)N1CCOCC1", "activity": "inactive: -1.73%"},
      {"molecule": "CCOc1ccc(CN2CCNC(=O)C2CC(=O)NCc2cc(C)n(C)n2)cc1", "note": "(stereo not drawn)", "activity": "inconclusive: 57.7%"},
      {"molecule": "O=C(COc1c(Br)cc(Br)c2cccnc12)N1CCc2ccccc2C1", "activity": "active: 57.2%"},
      {"molecule": "CCn1ccnc1CN1CCCC(C(=O)c2ccc3c4c(cccc24)CC3)C1", "note": "(stereo not drawn)", "activity": "inconclusive: 51.7%"},
      {"molecule": "CCN1CCN(c2cc(=O)n3ccccc3n2)CC1", "activity": "inactive: 0.361%"},
      {"molecule": "CCCn1c(SCc2ccc(Cl)cc2)nc2c1c(=O)[nH]c(=O)n2C", "activity": "inconclusive: 51.1%"},
      {"molecule": "Cc1cc(Oc2ccc(C#N)cc2)nc(NCc2ccccc2)n1", "activity": "inconclusive: 62.8%"},
      {"molecule": "O=C(CSc1ncc(C(F)(F)F)cc1Cl)N1CCN(S(=O)(=O)c2ccc3ccccc3c2)CC1", "activity": "inconclusive: 53.4%"},
      {"molecule": "C=C1c2cc(OC)ccc2NC(=O)N1CC", "activity": "inactive: -1.82%"},
      {"molecule": "CCOC(=O)c1sc(-c2ccccc2)cc1NC(=O)CSc1nnnn1C", "activity": "inconclusive: 54.6%"},
      {"molecule": "O=C(Nc1ccncc1)C1COc2ccccc2O1", "note": "(stereo not drawn)", "activity": "inactive: 4.69%"},
      {"molecule": "COC(=O)C1=C(C)N(Cc2ccccc2)C(=NCCc2c[nH]c3ccccc23)N[C@H]1c1ccccc1", "activity": "inactive: -18.7%"},
      {"molecule": "Cc1ccc(-c2csc3nnc(SCC(=O)Nc4nsc(-c5ccccc5)n4)n23)cc1", "activity": "inconclusive: 59.5%"},
      {"molecule": "Cn1c(=O)[nH]c(=O)c2c1nc(Sc1nc3ccccc3s1)n2Cc1ccccc1", "activity": "inconclusive: 54%"},
      {"molecule": "Cc1cc(NC(=O)c2ccccc2[N+](=O)[O-])ccc1Br", "activity": "inconclusive: 90.1%"},
      {"molecule": "O=C(c1cc2c(s1)CCCC2)N1CCN(S(=O)(=O)c2ccccc2C(F)(F)F)CC1", "activity": "active: 57.8%"},
      {"molecule": "CCc1nc2ccc(C(=O)NCCOc3ccc(OC)cc3)cn2c1N(C)Cc1cccs1", "activity": "inactive: 8.91%"},
      {"molecule": "CCCCCCCOC1(c2ccccc2)OC(=O)c2ccccc21", "note": "(stereo not drawn)", "activity": "inconclusive: 51.5%"}
    ]}
  ]
}
